Assay results taken from article PMC10470960.
Substitutions are numbered along the chain they refer to. Names may count otherwise. These are yes or no findings as the source states them, for the method shown. For part of these data: Binding seen in cells or lysates may run through a third protein. Some results given as binding are weak or reduced against the parent protein; the word gives no strength. Where a sequence is shown, tags or fusion partners need not be part of it.

T1: Ime4p fused to the Gal4p DNA-binding domain (S. cerevisiae) (UniProt P41833)
T1 sequence: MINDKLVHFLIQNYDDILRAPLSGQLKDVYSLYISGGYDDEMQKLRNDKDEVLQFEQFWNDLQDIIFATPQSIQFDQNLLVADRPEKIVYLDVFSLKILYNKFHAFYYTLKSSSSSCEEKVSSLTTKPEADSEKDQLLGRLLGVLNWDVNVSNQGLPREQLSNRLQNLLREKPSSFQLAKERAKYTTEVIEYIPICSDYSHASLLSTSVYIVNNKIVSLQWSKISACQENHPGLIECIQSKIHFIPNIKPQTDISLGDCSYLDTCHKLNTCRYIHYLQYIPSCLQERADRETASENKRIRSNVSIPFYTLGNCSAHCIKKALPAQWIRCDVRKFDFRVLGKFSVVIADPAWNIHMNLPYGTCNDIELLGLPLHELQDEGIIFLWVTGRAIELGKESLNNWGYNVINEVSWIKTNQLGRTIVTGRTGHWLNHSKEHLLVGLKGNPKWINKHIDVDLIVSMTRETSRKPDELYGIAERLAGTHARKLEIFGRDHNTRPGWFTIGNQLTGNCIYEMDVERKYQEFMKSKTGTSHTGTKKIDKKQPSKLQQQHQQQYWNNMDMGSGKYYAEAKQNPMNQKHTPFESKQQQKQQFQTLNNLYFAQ

T2: Mum2p fused to the 4xMYC epitope (S. cerevisiae) (UniProt P38236)
T2 sequence: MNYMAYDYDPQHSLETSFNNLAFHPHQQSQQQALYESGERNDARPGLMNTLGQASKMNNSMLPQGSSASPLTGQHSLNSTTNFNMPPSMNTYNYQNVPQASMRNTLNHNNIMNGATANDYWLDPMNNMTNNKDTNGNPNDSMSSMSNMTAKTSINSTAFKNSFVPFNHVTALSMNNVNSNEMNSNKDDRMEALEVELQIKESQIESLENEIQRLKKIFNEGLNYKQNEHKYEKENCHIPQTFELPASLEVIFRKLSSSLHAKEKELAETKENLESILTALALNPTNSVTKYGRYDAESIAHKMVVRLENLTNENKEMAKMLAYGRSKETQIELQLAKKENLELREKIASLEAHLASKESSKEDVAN

T3: Kar4p fused to the 13xMYC epitope (S. cerevisiae), P25583
T3 chain: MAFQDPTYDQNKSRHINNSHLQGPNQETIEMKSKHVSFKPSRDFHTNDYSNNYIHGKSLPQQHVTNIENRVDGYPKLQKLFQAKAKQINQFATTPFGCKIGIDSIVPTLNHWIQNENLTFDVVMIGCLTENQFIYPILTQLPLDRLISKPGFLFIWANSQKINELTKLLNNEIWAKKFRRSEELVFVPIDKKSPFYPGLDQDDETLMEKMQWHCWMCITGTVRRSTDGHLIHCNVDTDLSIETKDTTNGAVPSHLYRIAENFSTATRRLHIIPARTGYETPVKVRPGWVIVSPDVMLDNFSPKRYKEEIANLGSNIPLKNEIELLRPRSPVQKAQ

T4: Slz1p fused to the 3xHA epitope (S. cerevisiae), P40167
T4 chain: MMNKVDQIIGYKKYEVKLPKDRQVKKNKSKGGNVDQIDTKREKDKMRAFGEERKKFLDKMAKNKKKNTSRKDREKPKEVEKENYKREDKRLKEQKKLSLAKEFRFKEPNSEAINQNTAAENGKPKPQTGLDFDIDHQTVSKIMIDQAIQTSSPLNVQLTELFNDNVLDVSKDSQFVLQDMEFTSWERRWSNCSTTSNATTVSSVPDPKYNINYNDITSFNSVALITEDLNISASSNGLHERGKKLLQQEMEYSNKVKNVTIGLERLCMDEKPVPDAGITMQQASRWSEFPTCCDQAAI

B1: Kar4p fused to the Gal4p activating domain (protein, UniProt P25583 1-335)
chain: T3 chain
B2: Kar4p fused to the 3xHA epitope (protein, UniProt P25583 1-335)
chain: T3 chain
B3: Kar4p-3HA A157P (protein, UniProt P25583 1-335)
chain: T3 chain with A157P
B4: Kar4p-3HA H213Y (protein, UniProt P25583 1-335)
chain: T3 chain with H213Y
B5: Kar4p-3HA F186S (protein, UniProt P25583 1-335)
chain: T3 chain with F186S
B6: Kar4p-3HA E183K (protein, UniProt P25583 1-335)
chain: T3 chain with E183K
B7: Kar4p-3HA L255F (protein, UniProt P25583 1-335)
chain: T3 chain with L255F
B8: Kar4p-3HA P273L (protein, UniProt P25583 1-335)
chain: T3 chain with P273L
B9: Kar4p-3HA W212R (protein, UniProt P25583 1-335)
chain: T3 chain with W212R
B10: Kar4p-3HA C127Y (protein, UniProt P25583 1-335)
chain: T3 chain with C127Y
B11: Kar4p-3HA W156G (protein, UniProt P25583 1-335)
chain: T3 chain with W156G
B12: Kar4p-3HA P293L (protein, UniProt P25583 1-335)
chain: T3 chain with P293L
B13: Kar4p-3HA G126A (protein, UniProt P25583 1-335)
chain: T3 chain with G126A
B14: Kar4p-3HA T264P (protein, UniProt P25583 1-335)
chain: T3 chain with T264P
B15: Kar4p-3HA Q132K (protein, UniProt P25583 1-335)
chain: T3 chain with Q132K
B16: Kar4p-3HA E260K (protein, UniProt P25583 1-335)
chain: T3 chain with E260K
B17: Kar4p-3HA E260G (protein, UniProt P25583 1-335)
chain: T3 chain with E260G
B18: Kar4p-3HA A310Stop (domain or fragment, UniProt P25583 1-309)
chain: MAFQDPTYDQNKSRHINNSHLQGPNQETIEMKSKHVSFKPSRDFHTNDYSNNYIHGKSLPQQHVTNIENRVDGYPKLQKLFQAKAKQINQFATTPFGCKIGIDSIVPTLNHWIQNENLTFDVVMIGCLTENQFIYPILTQLPLDRLISKPGFLFIWANSQKINELTKLLNNEIWAKKFRRSEELVFVPIDKKSPFYPGLDQDDETLMEKMQWHCWMCITGTVRRSTDGHLIHCNVDTDLSIETKDTTNGAVPSHLYRIAENFSTATRRLHIIPARTGYETPVKVRPGWVIVSPDVMLDNFSPKRYKEEI
B19: Kar4p-3HA A85P (protein, UniProt P25583 1-335)
chain: T3 chain with A85P
B20: Kar4p-3HA G287D (protein, UniProt P25583 1-335)
chain: T3 chain with G287D
B21: Kar4p-3HA ΔP281V282 (protein, UniProt P25583 1-335)
chain: MAFQDPTYDQNKSRHINNSHLQGPNQETIEMKSKHVSFKPSRDFHTNDYSNNYIHGKSLPQQHVTNIENRVDGYPKLQKLFQAKAKQINQFATTPFGCKIGIDSIVPTLNHWIQNENLTFDVVMIGCLTENQFIYPILTQLPLDRLISKPGFLFIWANSQKINELTKLLNNEIWAKKFRRSEELVFVPIDKKSPFYPGLDQDDETLMEKMQWHCWMCITGTVRRSTDGHLIHCNVDTDLSIETKDTTNGAVPSHLYRIAENFSTATRRLHIIPARTGYETKVRPGWVIVSPDVMLDNFSPKRYKEEIANLGSNIPLKNEIELLRPRSPVQKAQ
B22: Kar4p-3HA M207R (protein, UniProt P25583 1-335)
chain: T3 chain with M207R
B23: Slz1p fused to the 3xHA epitope, P40167 1-298 (protein)
chain: T4 chain
B24: Kar4p fused to the 13xMYC epitope, P25583 1-335 (protein)
chain: T3 chain

molecular target: T1, Ime4p fused to the Gal4p DNA-binding domain (S. cerevisiae); test: two-hybrid; fusions swapped: KAR4-GAD with IME4-GBD; ADE2 reporter; settings: not given

binding, binds:
B1

molecular target: T2, Mum2p fused to the 4xMYC epitope (S. cerevisiae); test: co-IP; Mum2p-4MYC purified on anti-MYC magnetic beads from extracts of cells sporulated for four hours, Kar4p-3HA detected by western blot; lysis buffer 1% Triton-X 100, 0.2 M Tris-HCl pH 7.4, 0.3 M NaCl, 20% glycerol, 0.002 M EDTA; one hour at room temperature; settings: not given

binding, binds:
B2
B3
B4
B5
B6
B7
B8
B9
B10
B11
B12
B13
B14
B15
B16
B17
B18
B19

binding, no binding:
B20
B21
B22

Molecular target: T3, Kar4p fused to the 13xMYC epitope (S. …)
Test: co-IP; Slz1p-3HA purified on anti-HA magnetic beads and Kar4p-MYC detected, or Kar4p-MYC purified on anti-MYC beads and Slz1p-3HA detected; extracts of cells sporulated for four hours; lysis buffer 1% Triton-X 100, 0.2 M Tris-HCl pH 7.4, 0.3 M NaCl, 20% glycerol, 0.002 M EDTA
Settings: remark: other sources report otherwise

binding, binds:
B23

Molecular target: T4, Slz1p fused to the 3xHA epitope (S. …)
Test: as above
Settings: remark: other sources report otherwise

binding, binds:
B24
